Results published in PubChem BioAssay AID488969 (Vanderbilt High Throughput Screening Facility, 2010).
Whole data set: some 110,000 compounds, median “z-score” near -0.1, cut for the highest 2% near 2. The list shows a part of the results. Active and inactive are the calls of the source.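 The calls were made as follows: active = z-score in the third read window above 3 or below -3; inactive = the rest.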

These compounds were tested against Metabotropic glutamate receptor 8 (Rattus norvegicus) (UniProt P70579) (assay: rat mGluR8 modulators via GIRK flux, primary screen, cell-based, thallium flux, HTS (AID 488969)). Conditions: HEK293 rat mGluR8, GIRK (G protein-gated inwardly rectifying potassium channel) thallium flux, FluoZin2; at 10 µM; stronger effect = higher value; submaximal glutamate (EC20) added with thallium.
Sequence of UniProt P70579 (P70579 whole entry, looked up): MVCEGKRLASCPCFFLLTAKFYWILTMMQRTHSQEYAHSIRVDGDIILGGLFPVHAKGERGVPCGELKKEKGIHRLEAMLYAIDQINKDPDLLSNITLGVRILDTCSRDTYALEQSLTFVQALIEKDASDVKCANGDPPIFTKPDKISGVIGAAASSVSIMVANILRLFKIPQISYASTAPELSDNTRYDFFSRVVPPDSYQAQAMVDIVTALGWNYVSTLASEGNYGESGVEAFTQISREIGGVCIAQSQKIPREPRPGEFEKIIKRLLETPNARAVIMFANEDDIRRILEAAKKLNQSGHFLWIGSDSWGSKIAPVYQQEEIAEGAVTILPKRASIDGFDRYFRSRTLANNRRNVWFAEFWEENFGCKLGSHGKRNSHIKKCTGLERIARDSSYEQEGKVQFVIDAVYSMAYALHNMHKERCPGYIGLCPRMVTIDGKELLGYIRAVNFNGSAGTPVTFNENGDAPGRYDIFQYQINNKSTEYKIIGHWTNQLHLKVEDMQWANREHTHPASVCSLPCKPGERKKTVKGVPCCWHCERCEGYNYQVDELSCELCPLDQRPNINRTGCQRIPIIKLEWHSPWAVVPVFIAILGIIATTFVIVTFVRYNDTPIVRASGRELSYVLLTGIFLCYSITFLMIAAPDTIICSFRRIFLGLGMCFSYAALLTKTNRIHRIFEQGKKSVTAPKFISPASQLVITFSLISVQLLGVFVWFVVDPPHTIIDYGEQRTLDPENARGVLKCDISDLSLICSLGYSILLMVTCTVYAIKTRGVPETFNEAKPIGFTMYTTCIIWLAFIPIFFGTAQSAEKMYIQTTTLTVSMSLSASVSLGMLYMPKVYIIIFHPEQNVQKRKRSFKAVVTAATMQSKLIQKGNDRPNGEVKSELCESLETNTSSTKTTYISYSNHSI

Row | Structure (SMILES) | z-score
1 | Cc1nc2cc(NC(=O)Nc3nccs3)ccc2n1C | -0.136
2 | C=CCn1c(Cc2cccs2)nnc1SCC(=O)Nc1ccc(OC)c(OC)c1 | 0.0201
3 | Cc1nnc2sc(-c3ccc(NC(=O)c4cccnc4)cc3)nn12 | -0.542
4 | CCOc1ccc(NC(=NCc2ccc3c(c2)OCO3)SC2CC(=O)N(c3ccc(OCC)cc3)C2=O)cc1 (stereo not drawn) | -1.22
5 | COc1ccccc1CN(CC(=O)NCc1ccc2c(c1)OCO2)C(=O)c1ccc2c(c1)OCCO2 | -0.297
6 | CCN(CC)C(=O)Nc1ccc(C(=O)OC)cc1 | -0.62
7 | Cc1cc(/C=C2\C(=N)N3C(SCc4ccccc4)=NSC3=NC2=O)c(C)n1Cc1ccccc1 | 0.143
8 | COc1ccccc1C1C(C#N)=C(N)Oc2cc(C)n(Cc3ccccn3)c(=O)c21 (stereo not drawn) | -0.178
9 | Cc1nc2sc(-c3ccccc3)cc2c(=O)[nH]1 | 0.314
10 | CCCCCn1nc(C)c(/C=N/NC(=O)c2ccoc2C)c1C | -0.359
11 | COc1ccc(-c2nsc3c(N4CCN(S(=O)(=O)c5ccccc5F)CC4)ncnc23)cc1 | -0.298
12 | CCOC(=O)c1ccc(NC(=O)NC2CC3CCC(C2)N3Cc2nnnn2Cc2ccco2)cc1 (stereo not drawn) | -0.985
13 | CC1=CCC(Cc2nc3ccccc3o2)C1(C)C (stereo not drawn) | -0.293
14 | Cc1ccc(Cn2c(Sc3nccc(C)n3)nc3c2c(=O)[nH]c(=O)n3C)cc1 | 0.024
15 | C=CCn1cc(-c2ccc(Cl)cc2)cc(C#N)c1=O | -0.444
16 | COC(=O)c1cccc(COC(=O)c2cccnc2SC)c1 | -0.0421
17 | Cc1cccc2cc(CN(CC3CCCO3)C(=O)NC3CCCCC3)c(=O)[nH]c12 (stereo not drawn) | -0.392
18 | O=C1C2(c3ccccc3)CN(CCO)CC1(c1ccccc1)CN(CCO)C2 | -0.0183
19 | Cn1cc(-c2nnnn2-c2ccc(Cl)cc2)c(C(F)(F)F)n1 | 0.131
20 | CCc1cccc(CC)c1NC(=S)NCc1ccc2c(c1)OCO2 | -0.582
21 | COc1cccc(/C=N/NC(=O)CCn2nnc3ccccc32)c1 | 2.1
22 | COc1ccc(N2CCN(Cc3nc4ccccc4c(=O)[nH]3)CC2)cc1 | -0.0381

Row | Structure (SMILES) | z-score
23 | c1cncc(-c2nc(-c3ccco3)cs2)c1 | -0.0789
24 | CCCCN(CCCC)c1nc2ccccc2nc1C(C#N)C(=O)NCCCOC (stereo not drawn) | active: 6.64
25 | Cc1noc(C)c1C(=O)NCCCN1CCCC1=O | 0.206
26 | COC(=O)C(C#N)C(=C1C(=O)CC(C)(C)CC1=O)c1ccc(O)cc1 (stereo not drawn) | 0.478
27 | CCn1c2ccccc2c2cc(N=C3SC(CC(=O)Nc4ccccc4)C(=O)N3C)ccc21 (stereo not drawn) | -0.116
28 | CN(C)c1cccc(C(=O)Nc2cccc(F)c2)c1 | -0.274
29 | CC(=O)Nc1sc2c(c1CN1CCN(C)CC1)CCCC2 | 0.0499
30 | COc1cc(C(=O)N2CCN(c3ncnc4sc(C)c(C)c34)CC2)cc(OC)c1OC | -0.77
31 | CC1CCN(S(=O)(=O)c2ccc3c(c2)oc(=O)n3CC(=O)N2c3ccccc3CC2C)CC1 (stereo not drawn) | 0.0729
32 | Cn1nc(-c2ccc(C(=O)O)cc2)c2ccccc2c1=O | -0.386
33 | CO/N=C(\Cn1ncc(NC2CCCCC2)c(Br)c1=O)c1ccc(Cl)cc1 | -0.575
34 | COc1cccc(/C=N/NC(N)=S)c1OCc1cccc(Cl)c1 | 0.111
35 | Cc1c(NC(=O)CCC(=O)N2CCOCC2)c(=O)n(-c2ccccc2)n1C | 0.107
36 | O=C(c1nc2n(n1)C(c1ccc(Cl)cc1)C=C(c1ccccc1)N2)N1CCOCC1 (stereo not drawn) | -0.388
37 | Cc1cc(C)n(CC(O)CN(c2ccccc2)S(=O)(=O)c2ccccc2)n1 (stereo not drawn) | -0.261
38 | COc1ccc(CCNC(=O)c2cc3ccccn3n2)c(OC)c1OC | -0.0894
39 | C/C(N)=C(/C#N)C(=O)CSc1nnc(Nc2ccccc2C)s1 | -0.126
40 | Cc1ccc([N+](=O)[O-])c(OCC(=O)OCC(=O)c2ccccc2)c1 | -0.274
41 | Cc1nnc(-c2cnn(C)c2N)n1Cc1ccc(Cl)cc1 | 0.289
42 | Cc1cc(Cl)cc(Br)c1OCCCN1C(=O)NC(C)(C)C1=O | -0.0538
43 | Cc1ccc(Nc2nnc(-c3ccncc3)s2)c(Br)c1 | 0.13
44 | CCOc1ccc(CCNC(=O)c2ccc(CNS(=O)(=O)c3ccccc3)cc2)cc1OCC | -0.309

Row | Structure (SMILES) | z-score
45 | Cc1ccccc1-c1nc(CN2CCCC(C(=O)NCc3cccnc3)C2)c(C)o1 (stereo not drawn) | -0.423
46 | O=C1NC(NS(=O)(=O)c2ccccc2)(C(F)(F)F)C(=O)N1c1ccc(F)cc1 (stereo not drawn) | 0.256
47 | Cc1csc(NC(=O)CSc2nnc(-c3cc(C)on3)o2)n1 | 0.301
48 | Cc1csc(SCCn2c(N3CCN(c4ccccc4)CC3)nc3c2c(=O)[nH]c(=O)n3C)n1 | 1.74
49 | COc1ccc(NC(=O)C(=O)NCCN2CCN(C(=O)C(c3ccccc3)c3ccccc3)CC2)cc1 | -0.158
50 | Cc1ccnc(NC(=O)C2CCN(S(=O)(=O)c3cccc4nonc34)CC2)c1 | -0.149
51 | Cc1cc(C)n2c(Br)c(CSc3nc4ccccc4o3)nc2n1 | 0.47
52 | Cc1occc1-c1nnc(SCC(=O)Nc2nc(-c3ccccc3)cs2)o1 | -0.197
53 | O=C(/C=C/c1ccco1)NC(=S)Nc1ccc(O)c(-c2nc3ccccc3s2)c1 | -0.032
54 | COc1ccc(C2=CSC3=C(C(=O)c4cccc(S(=O)(=O)N(C)C)c4)CCN23)cc1 | -0.29
55 | COc1ccc(N2C(=O)C3C(C2=O)C2C=CC3C23CC3)c(OC)c1 (stereo not drawn) | 1.27
56 | C/C=C/CSc1nc2c(c(=O)[nH]c(=O)n2C)n1C(C)C | 0.377
57 | COc1cccc(N(C(=O)c2cnccn2)C(C(=O)NC2CCCCC2)c2ccc(Cl)cc2)c1 (stereo not drawn) | -0.149
58 | Cc1cccn2cc(CCNC(=O)c3ccco3)nc12 | -0.115
59 | O=C(c1ccccc1)c1c2c(cc3sc4ccccc4[n+]13)-c1cccc3cccc-2c13 | 0.54
60 | Cc1nc(-n2ncc(C#N)c2N)c2c3c(sc2n1)CCC3 | 0.0974
61 | Cc1ccc(-n2c(C)nc3c(cnn3-c3ccc(C)c(C)c3)c2=O)cc1C | -0.308
62 | Cc1cc(C(F)F)n2nc(C(=O)NCc3ccccc3F)nc2n1 | -0.208
63 | COc1ccc2c(c1)C(C)=CC(C)(C)N2C(=O)C(C)N1C(=O)c2ccccc2C1=O (stereo not drawn) | 0.167
64 | CCOC(=O)c1c(C)[nH]c(C(=O)/C(C#N)=C/c2ccc(OC(F)F)c(OC)c2)c1C | -0.315
65 | CCOc1ccc(NC2C=CS(=O)(=O)C2)cc1 (stereo not drawn) | 0.106
66 | Cc1ccc(OCC(=O)Nc2ccccc2N2CCOCC2)c(C)c1 | 0.00977

Row | Structure (SMILES) | z-score
67 | CCOc1ccc(NC(=O)C(C)Sc2nnc(C)n2C)cc1 (stereo not drawn) | -0.178
68 | O=C(CC1(O)C(=O)Nc2ccccc21)c1cccc(Br)c1 (stereo not drawn) | -0.094
69 | CC(C)(C)C(=O)/C=C/Nc1ccccc1O | -0.162
70 | COc1ccc(NC(=O)C2CCN(S(=O)(=O)c3c(C)noc3C)CC2)cc1Cl | -0.286
71 | Cc1ccc(C2=C/C(=C/c3cccs3)C(=O)O2)cc1 | -0.029
72 | CC1CCC(N2CCN(c3ncccn3)CC2)C1 (stereo not drawn) | -0.131
73 | Cc1c(CN2CCCCC2)c(O)n(CCCO)c(=O)c1C#N | 0.0291
74 | O=C(NC(C(=O)c1ccccc1)N1CCCCCC1)c1ccco1 (stereo not drawn) | -0.207
75 | Cc1ccc(NC(=O)c2cnn(-c3ccccc3)c2NC(=O)c2ccco2)cc1 | -0.217
76 | OC(COCC1COc2ccccc2O1)CN1CCCCC1 (stereo not drawn) | 0.068
77 | CCOc1ccc(N(CC(=O)Nc2cccc(Cl)c2)S(=O)(=O)c2c(C)noc2C)cc1 | -0.0972
78 | COc1cc(C=O)ccc1OCCOCCOc1cc(C)ccc1Cl | -0.212
79 | CCC(=O)N1CCc2cc(Br)cc(S(=O)(=O)N3CCCCCC3)c21 | -0.994
80 | CC(=O)c1ccc(OCC(O)CN2CCN(c3ccccn3)CC2)cc1 (stereo not drawn) | 0.331
81 | Cc1ccc2c(c1)N(C(=O)CCC(=O)N1CCc3ccccc3C1)CCO2 | -0.377
82 | O=C(O)c1cc([N+](=O)[O-])ccc1Nc1ccccc1 | -0.608
83 | O=C(COC(=O)c1cccc(NS(=O)(=O)c2ccc(F)c(F)c2)c1)NC(=O)NC1CCCC1 | -0.651
84 | COC(=O)c1ccc(Nc2cc(C)nc3ncnn23)cc1 | 0.556
85 | CCOC(=O)c1c(NC(=O)C2COc3ccccc3O2)sc(C(C)=O)c1C (stereo not drawn) | -0.115
86 | CC(NC(=O)c1csc2ccccc12)C1CCCO1 (stereo not drawn) | 0.152
87 | CCCn1cc(S(=O)(=O)CC(=O)NC2CCCCC2)c2ccccc21 | 0.0487
88 | CCCc1cc(=O)oc2cc(OCc3nn[nH]n3)ccc12 | 0.0525

Row | Structure (SMILES) | z-score
89 | COc1ccc2c(c1)[nH]c1c(=O)n(CC3CCCO3)cnc12 (stereo not drawn) | -0.0789
90 | COC(=O)c1cc(C#N)c(Oc2ccc(F)cc2)nc1C | -0.153
91 | CCOC(=O)c1oc2c(CN3CCN(C)CC3)c(O)ccc2c(=O)c1-c1ccccc1OC | 0.292
92 | Nc1ccccc1Nc1ccccc1 | -0.162
93 | CCC1SC2=NC(C)=C(C(=O)OC)C(c3ccc(C(=O)OC)cc3)N2C1=O (stereo not drawn) | -0.683
94 | Cc1cc(C)nc(Sc2nc(Cl)nc(N(c3ccccc3)c3ccccc3)n2)n1 | -0.47
95 | CCC(C)Nc1c([N+](=O)[O-])cc(C)cc1[N+](=O)[O-] (stereo not drawn) | -0.166
96 | Cc1ccc(NC(=O)c2oc(=O)c3ccccc3c2-c2ccccc2)c(C)c1 | -0.162
97 | O=C(O)c1[nH]c2ccccc2c1CC(=O)N1CCOCC1 | 0.571
98 | COc1ccc(C(=O)C(C)N(C(=O)c2ccc(Cl)cc2Cl)N2C(=O)C3C4C=CC(C4)C3C2=O)cc1 (stereo not drawn) | -0.146
99 | CCCc1ccc(C(=O)NNC(=O)c2ccc(Br)cc2)cc1 | 0.763
100 | O=C(CCNC(=O)OCc1ccccc1)NC1CCCCC1 | 0.0409
101 | Cc1ccc2nc3sc(C(=O)N4CCCc5ccccc54)c(N)c3cc2c1 | 0.484
102 | COc1ccc2[nH]c(=O)c(C(c3nnnn3C(C)(C)C)N(Cc3ccco3)CC3CCCO3)cc2c1 (stereo not drawn) | 0.22
103 | Cc1cc(C)cc(NC(=S)NCC2CCCO2)c1 (stereo not drawn) | -0.21
104 | Cc1oc2c(C)c3oc(=O)c4c(c3cc2c1C)CCC4 | -0.532
105 | COC(=O)c1ccc(NC(=O)c2ccc3c(c2)OCO3)cc1 | -0.148
106 | COc1ccc(C2C(Oc3ccccc3C)C(=O)N2Cc2ccc(F)cc2)cc1OC (stereo not drawn) | -1.24
107 | CC(=O)c1ccc(NC(=O)C2CCCN2S(=O)(=O)c2cccc3cccnc23)cc1 (stereo not drawn) | -0.24
108 | CCCNC(=O)CNC(=S)N(Cc1cc(OC)c(OC)c(OC)c1)C1CCCC1 | -0.414
